This passage reports survival results from PubChem BioAssay AID463173 (ICCB-Longwood Screening Facility, Harvard Medical School, 2010).

The whole screen tested about 52,000 compounds, of which about 1,700 (3.3%) were called active. Cut-off read from the data, not from the text of the source: active = survival mostly below about 52% (no sharp cut-off); inactive = mostly above about 56%. The list shows a part of the results.

The assay concerns Wild type. The assay is described as follows: growth inhibition of S. aureus wild type versus tarO mutant, primary screen, teichoic acid synthesis inhibitors, RN4220, OD600 (AID 463173). Particulars: S. aureus RN4220 wild type/DeltatarO growth, OD600, 18 h, active compounds read low, screened at 18.75 µg/mL (by protocol).
`CCOc1ccc(-c2nc3c(c(SCC(=O)N4CCCCC4)n2)Cc2ccccc2O3)cc1`: the survival was inactive: 82%.

As for `CNC(=O)C1CCC(Cn2c(=O)c3sccc3n(CC(=O)NCc3ccc(F)cc3)c2=O)CC1` (configuration not stated), the survival was inactive: 45%. As to `O=C(C1CCCN(S(=O)(=O)c2ccc(Br)s2)C1)N1CCN(c2ccccc2)CC1` (configuration not stated), the survival is inactive: 77%. As for `Cc1ccc(-c2ccc(=O)n(CC(=O)Nc3cccc(C#N)c3)n2)cc1`, the survival was inactive: 128%.

As for `CC1=C(C(=O)Nc2cccnc2)C(c2ccccc2)n2nc(-c3ccc(O)cc3)nc2N1` (configuration not stated), the survival is inactive: 68%. Under `Cc1ccc(C2CCN(C(=O)c3cnn(-c4ccc(C)cc4)c3C3CCN(C(=O)OC(C)(C)C)CC3)C2)cc1` (configuration not stated) stands inactive: 119%; under `C=Cc1ccc(Cn2c(C(=O)O)c(CNCc3ccccc3)c3ccc(C)cc32)cc1`, inactive: 129%.

As to `CCc1nnc(NC(=O)C2CCN(S(=O)(=O)Cc3ccccc3)CC2)s1`, the survival was inactive: 106%. Under `Cc1c(C(=O)N2CCCCC2)sc(NC(=O)C(C)C)c1C#N` stands inactive: 116%; under `CC(=O)N1CCCc2cc(S(=O)(=O)N3CCCC(C(=O)Nc4cc(Cl)ccc4C)C3)ccc21` (configuration not stated), inactive: 146%. Under `COc1ccc(NC(=O)c2ccc3c(=O)n4nc(Nc5cccc(Cl)c5C)sc4nc3c2)cc1` stands inactive: 74%.

On to `O=C(N1CCCC1)N1c2ccccc2C=Cc2ccccc21`, for which the survival was inactive: 118%.

Turning to `Cc1ccc(-c2csc(=Nc3ccc(F)cc3)n2Cc2ccc3c(c2)OCO3)cc1C`, the survival is inactive: 88%.

Turning to `CCOc1ccccc1NS(=O)(=O)c1ccc(-c2cnc(C3CC3)o2)cc1`, the survival is inactive: 83%. The same measure for `Cc1ccc2cc(CN(CC3CCCO3)C(=O)C3CCC3)c3nnnn3c2c1` (configuration not stated): inactive: 115%; for `COc1cccc(NC(=O)CC(C)S(=O)(=O)c2ccc3c(c2)NC(=O)CO3)c1` (configuration not stated): inactive: 111%.

Consider `Cc1c(Cl)cccc1NC(=O)c1ncn(-c2ccccc2)n1`, for which the survival was inactive: 92%. The same measure for `Cc1ccc(NC(=O)CN2C(=O)C3(SCC(=O)N3c3cccc(Cl)c3)c3ccccc32)cc1C` (configuration not stated): inactive: 85%; for `Cc1nn(-c2ccccc2)c2sc(C(=O)Nc3ccccc3Br)cc12`: active: 7%; for `CC1CCCN(c2ncccc2C(=O)NCC2CCCO2)C1` (configuration not stated): inactive: 95%. For `COc1ccc(CCNC(=O)CSc2nc(-c3ccc(F)cc3)cc(C(F)(F)F)n2)cc1OC`, the survival is inactive: 97%.

Take `Cc1cccc(C(=O)Nc2nnc(S(=O)(=O)N(C)Cc3ccco3)s2)c1`: the survival is inactive: 29%. Consider `Nc1c(C(=O)Nc2ccc(C(=O)O)cc2)sc2nc3c(cc12)CCCC3`, for which the survival was inactive: 77%. Under `Cc1ccc(NS(=O)(=O)c2ccc3c(c2)CCCN3C(=O)C2CCC2)cc1Cl` stands inactive: 136%. Under `O=C(CC1Nc2ccccc2NC1=O)Nc1cccc2ccccc12` (configuration not stated) stands inactive: 99%; under `O=C(NCc1ccc2c(c1)CCN2C(=O)c1ccc(Cl)cc1)c1cccc(F)c1`, inactive: 55%. The same measure for `Cc1ccc(NC(=O)CCS(=O)(=O)c2cc3c4c(c2)CCN4C(=O)CC3)c(C)c1`: inactive: 78%. As for `O=C(Nc1nnc(S(=O)(=O)Nc2ccccc2)s1)c1ccccc1Cl`, the survival is inactive: 40%. In the case of `CCc1noc(-c2ccc(N3CCCCC3C)c([N+](=O)[O-])c2)n1` (configuration not stated), the survival was inactive: 123%. Under `COCCNc1nc2c(S(=O)(=O)c3ccc(C)c(C)c3)nnn2c2ccc(Cl)cc12` stands inactive: 89%; under `COc1cc(OC)cc(C(=O)Nc2ccc(S(=O)(=O)Nc3ncccn3)cc2)c1`, inactive: 91%; under `Cc1nc2nncn2c(NCc2ccc(F)cc2)c1C`, inactive: 84%. The same measure for `CN1C(=O)/C(=C2/SC(=S)N(c3cccc(O)c3)C2=O)c2ccccc21`: inactive: 102%; for `CCC(Oc1ccccc1)C(=O)Nc1cc(-c2ccccc2OC)nn1-c1ccccc1` (configuration not stated): inactive: 70%.

`Cc1cc(C(F)(F)F)n2nc(C)cc2n1`: the survival was inactive: 107%.

As for `O=C(N/N=C/c1cn(-c2ccccc2)nc1-c1ccccc1)c1ccco1`, the survival was inactive: 99%. The same measure for `Cc1cc(Cl)nc(-c2ccccc2)n1`: inactive: 112%; for `Cc1ccc(CS(=O)(=O)c2ncc(Cl)c(C(=O)Nc3nc4ccc(F)cc4s3)n2)cc1`: inactive: 20%; for `Cc1ccc(-c2nc3c(c(SCC(=O)Nc4ccccc4Cl)n2)Cc2c(CO)cnc(C)c2O3)cc1`: inactive: 87%. Under `CCOC(=O)c1c(S(=O)(=O)NCC(=O)NCc2cccc(C)c2)c(C)n(C)c1C` stands inactive: 71%. `O=C(Nc1ccc2oc(-c3ccc4ccccc4c3)nc2c1)c1ccccc1F`: the survival is inactive: 88%. In the case of `O=C(OCC1CCCO1)c1ccc2c(c1)N(Cc1ccccc1Cl)C(=O)c1ccccc1S2(=O)=O` (configuration not stated), the survival is inactive: 126%.

As to `CCOc1ccc(-n2c(=O)c3c4c(sc3n(CC(=O)Nc3cccc(C(F)(F)F)c3)c2=O)CCCCC4)cc1`, the survival was inactive: 83%. Turning to `COc1ccccc1NC(=O)C(Cc1ccccc1)NS(=O)(=O)c1ccc2c(c1)c(=O)n(C)c(=O)n2C` (configuration not stated), the survival is inactive: 116%. Under `O=C(COc1ccccc1)Nc1nnc(S(=O)(=O)N2CCCC2)s1` stands inactive: 78%; under `CN(Cc1ccccc1)c1ncnc2onc(-c3ccc(F)cc3)c12`, inactive: 81%; under `Cc1cc(Nc2cccc(C(F)(F)F)c2)nc2ccc(NC(=O)c3ccc(=O)[nH]c3)cc12`, inactive: 32%.

Take `O=C(NCc1ccc(F)cc1)c1c(O)nc2ccccn2c1=O`: the survival is inactive: 55%. Under `COc1ccc(NC(=O)c2ccc(C3SCC(=O)N3Cc3ccco3)cc2)cc1` (configuration not stated) stands inactive: 110%; under `CCCCOc1cccc(NC(=O)CSc2nnc(C)s2)c1`, inactive: 70%; under `COc1ccc(NC(=O)COc2ccc(S(=O)(=O)NC3CCCCC3)cc2)cc1OC`, inactive: 74%. Under `CCCC(=O)OCc1cnc(C)c2oc(=O)c(C(=O)Nc3ccccc3)cc12` stands inactive: 85%; under `COc1ccc(NC(=O)C2CCC(CNS(=O)(=O)c3ccc(Br)s3)CC2)cc1OC` (configuration not stated), inactive: 83%; under `COc1ccc(OC)c(NC(=O)CSc2nc3ccccc3nc2N2CCCCC2)c1`, active: -10%. As for `Cc1ccc2c(=O)cc(CSCC(=O)Nc3nnc(C)s3)[nH]c2c1`, the survival is inactive: 153%. The same measure for `O=C(Nc1cccc(Cl)c1)c1cnc[nH]1`: inactive: 147%; for `COc1ccc(Br)cc1C1Sc2ccccc2NC2=C1C(=O)c1ccccc12` (configuration not stated): inactive: 41%.
